Patent US20180044686A1, “TOOLS AND METHODS FOR USING CELL DIVISION LOCI TO CONTROL PROLIFERATION OF CELLS” (Sinai Health System, priority 2015, published 2018)

System: mouse ES cells with an HSV-TK-mCherry knock-in into the 3′UTR of the CDK1 locus
Experiment: GCV killing of ALINK-modified (Cdk1-HSV-TK) mouse ES cells in vitro

In the case of Nc1nc(O)c2ncn(COC(CO)CO)c2n1 [GCV, ganciclovir], the “cell growth (colony size)” value (GCV 0.01 μM, 3 days, n=5) is reported as “slowed down cell growth”, the colony number (GCV 0.01 μM, 3 days, n=5) is reported as “did not affect the colony number” and the “ablation of undifferentiated ES cells” value (homozygously- and heterozygously-modified cells) is reported as “ablates both homozygously- and heterozygously-modified cells”.
